About 540 (0.36%) of roughly 150,000 compounds showed an effect of 50% or more. Some of the results follow.
Test system: Plasmodium falciparum
Assay: Primary screen in NF54 nanoGlo assay, in single point, at 2uM, 72h; a lower Z score goes with more inhibition
Assay type: functional, Erythrocyte
Details: timepoint 72 hour

| SMILES | % Inhibition [%] | Z score |
| --- | --- | --- |
| Cn1cc(C(=O)N[C@H](c2ccccn2)C(F)(F)F)ccc1=O | -3 | 0.64 |
| CCN1C(=O)CO[C@H](C(=O)NC23CCC(CC2)CC3)[C@H]1c1ccnn1C | 2 | -0.34 |
| CC1(C)CCc2onc(C(=O)N3CCC(c4nnc5n4CCNC5)CC3)c2C1 | -4 | 0.45 |
| COc1cccc(CNc2cccc(OCC(F)F)n2)n1 | -5 | 0.52 |
| COCCn1nnnc1[C@]1(N2CCOCC2)CCCN(C(=O)Nc2ccc(C)cc2C)C1 | 1 | -0.12 |
| Cc1nn(C)c2nc(-c3ccccn3)nc(N3CC(N4CCCC[C@@H]4C)C3)c12 | -1 | 0.24 |
| Cc1cc(OCC2CCN(C(=O)CCC(F)(F)F)CC2)ncn1 | -5 | 0.97 |
| Cc1nc(CN2CCC[C@H]2c2cnn(C)c2)oc1C | -13 | 1.71 |
| Cc1nc(CCNc2ccc(C)c(F)c2)cs1 | -10 | 1.05 |
| Cc1nc(N(C)Cc2nccn2C)ccc1C#N | 2 | -0.36 |
| Cc1[nH]c(=O)[nH]c(=O)c1-c1ccc(-c2ccn[nH]2)cc1 | -10 | 1.91 |
| Cc1cc(=O)[nH]c(-n2[nH]c(C)c(CCO)c2=O)n1 | -2 | 0.33 |
| O=C(N[C@@H](CN1C(=O)COC1=O)c1ccccc1)c1ccc2ncsc2c1 | -9 | 1.41 |
| Cc1cc([C@]2(C)NC(=O)N(Cc3nc4ccccc4n3C(F)F)C2=O)c(C)o1 | 11 | -1.72 |
| Cn1nncc1C=Cc1cc(C(=O)O)nc(-c2ccc(Cl)cc2)n1 | -1 | 0.2 |
| CCOc1cc(C(=O)Nc2ccncc2)ncn1 | 5 | -0.88 |
| CC(=O)N1CCC(CN(C)C(C)c2ccc(C(C)C)cc2)C1 (stereo not drawn) | -1 | 0.16 |
| CN1C(=O)CC[C@@]12CCN(S(=O)(=O)c1ccc3c(c1)CCCC3)C2 | -3 | 0.4 |
| O=c1[nH]cnn1-c1ccc(Br)cc1 | -11 | 1.65 |
| O=S(=O)(NCc1ccccc1)N[C@H]1CCCN(c2ncccn2)C1 | -12 | 2.36 |
| O=C(N[C@@H]1CCc2ccccc21)c1ccccc1 | -7 | 1.07 |

| SMILES | % Inhibition [%] | Z score |
| --- | --- | --- |
| C[C@H](NCc1cc(O)nc(C2CC2)n1)c1cscn1 | -9 | 1.59 |
| CC1CCN([C@H]2CCc3c(c(C(=O)N(C)C)nn3Cc3ccccc3)C2)CC1 | -8 | 0.93 |
| Cc1ccc(=O)n(CCOc2ccc(Cl)c(F)c2)n1 | 5 | -0.58 |
| NC(=O)[C@H]1CCCN(c2noc3ccc(Br)cc23)C1 | 29 | -3.33 |
| CN(C)[C@@H](CNC(=O)c1cc2c([nH]1)CCCC2)C1CC1 | -7 | 0.97 |
| N#C[C@H](c1nc2ccccc2nc1N1CCN(c2ccccc2)CC1)S(=O)(=O)c1cccs1 | -10 | 0.89 |
| CC[C@](C)(Nc1ccc2c(c1)OCO2)c1nnnn1-c1ccc(OC)cc1 | 1 | -0.18 |
| Cc1nn(CC(=O)N2CCC(=O)NC[C@@H]2C)c(=O)n1CCc1ccccc1 | -4 | 0.53 |
| COc1ccccc1C(=O)NCc1nccc(N(C)C)n1 | -11 | 1.7 |
| COc1cccc(C(=O)N2CCN(c3cccnc3)C(=O)C2)c1OC | 9 | -1.08 |
| COCCNC(=O)N1CC[C@H](c2ccsc2)C1 | -6 | 1.14 |
| CC1(C)CN(C(=O)c2csc(C3CC3)n2)CC[S@@+]1[O-] | 2 | -0.23 |
| O=C(NCc1cccc(COCc2ccco2)c1)c1cc2c(cc1O)OCO2 | 2 | -0.3 |
| CCOCC(=O)N1C[C@@H](COC)[C@H](c2nc(C3CC3)no2)C1 | -8 | 1.39 |
| O=C(Cn1nc(-c2ccccc2)ccc1=O)N1CC2CCC(O)C2C1 (stereo not drawn) | -2 | 0.28 |
| COc1ccc2[nH]c(CN3C[C@@H]4CC[C@H]3CN(S(C)(=O)=O)C4)c(C)c2c1 | -4 | 0.71 |
| O=C1CCN(c2nc(-c3cccnc3)nc3ccccc23)CCN1 | 0 | -0.02 |
| COCCN(CC(=O)N1N=C(c2cccn2C)C[C@H]1c1ccc(Cl)cc1)C(=O)c1cccc(F)c1 | 3 | -0.43 |
| O=C(Nc1cccnc1)c1c[nH]c(=O)n(Cc2cccs2)c1=O | 1 | -0.09 |
| CC(C)CC[C@@H](CCNCc1ccccn1)c1ccc(Cl)cc1 | 25 | -3.14 |
| CCc1nnc2c(=O)n(CC(=O)N3CCN(c4ccccc4F)CC3)c3ccccc3n12 | -9 | 1.05 |

| SMILES | % Inhibition [%] | Z score |
| --- | --- | --- |
| COc1ccc(-c2noc(-c3cccn3CC(=O)N3CCCC3)n2)cc1OC | -8 | 1.06 |
| Cc1ccc(/C=C/[C@]23NC(=O)CN2c2ccccc2C3(C)C)cc1 | 11 | -1.34 |
| CC(=O)NC1CN(C(=O)N[C@@H](C)CC(C)(C)C)C1 | -7 | 1.47 |
| Cc1cc(Cl)ccc1Nc1nc(N2CCN(c3ccc(F)cc3)CC2)nc2nccnc12 | -22 | 2.5 |
| CN(Cc1ccsc1)C(=O)Cn1cnc2ccccc21 | -17 | 1.45 |
| CCn1ccc(C(=O)N(C[C@H]2CCOC2)C2CCN(C)CC2)n1 | -10 | 1.34 |
| CC(C)(C)OC(=O)N1CCC[C@H]1C(=O)NCc1ccc(-n2cncn2)nc1 | -7 | 0.89 |
| Cc1cnc(C)c(N2CC[C@@]3(CCCN(CC4CCC4)C3=O)C2)n1 | -4 | 0.87 |
| Cc1cc(=O)n(CC(=O)Nc2ccc(F)cc2C)c(N2CCCC2)n1 | -6 | 0.69 |
| COc1cc(CN2CCN3CCCC3C2C2CCCCC2)cc(OC)c1 (stereo not drawn) | -5 | 1.02 |
| O=C1c2cccc(Cl)c2CCN1CCNCc1ccccc1 | 9 | -1.67 |
| COc1ccc(C(=O)N2CCN(Cc3c(-c4ccc(F)cc4)nc4ccc(-c5ccccc5)cn34)CC2)cc1 | -1 | 0.07 |
| Cc1nonc1N1CCN(Cc2nc(-c3cc4c(cc3Cl)OCO4)oc2C)CC1 | -6 | 1.15 |
| COc1cc2c(C#N)c(OC)nc3c2c(n1)NC1(CCCCC1)N3 | -2 | 0.21 |
| O=C(O)c1cccc(S(=O)(=O)NC[C@@H]2COc3ccccc3C2)c1 | 15 | -1.97 |
| CC(C)n1cc(CN(C)c2nccnc2C#N)cn1 | -9 | 1.58 |
| Cn1ncc(C(=O)Nc2cccc(Oc3ccncc3)c2)c1C(F)F | -12 | 1.47 |
| COc1ccccc1/C=C/CN[C@H]1CC[C@@H](n2cc(C(=O)NC3CC3)nn2)CC1 | 5 | -0.93 |
| Cc1nc(C(=O)c2ccccc2)c(C)o1 | -17 | 1.94 |
| CCCS(=O)(=O)N1CC(Oc2ccccc2-c2nc(CCOC)no2)C1 | 8 | -0.95 |
| COc1cc(NC(=O)Cc2noc3ccccc23)ccc1N1CCOC1=O | -1 | 0.11 |

| SMILES | % Inhibition [%] | Z score |
| --- | --- | --- |
| CCOc1ccccc1N(C)C(=O)C1c2ccccc2C(=O)N(C)C1c1ccc(OC)cc1 (stereo not drawn) | 12 | -1.92 |
| CCOC(=O)N1CCN(C(=O)c2cc3ccccc3cc2NC(=O)C(C)C)CC1 | -2 | 0.43 |
| Cn1cc(NC(=O)[C@H]2CCOC3(CCCC3)C2)c(C(N)=O)n1 | 1 | -0.08 |
| CN(C)c1ccnc(N2CCN(c3ccc(C(N)=O)cc3)CC2)n1 | -2 | 0.26 |
| Cc1ncc(CN2CCN(Cc3ccncc3)[C@@H]3CS(=O)(=O)C[C@@H]32)cn1 | 1 | -0.14 |
| COc1ccc([C@H](C)NS(N)(=O)=O)cc1F | -4 | 0.69 |
| CCS(=O)(=O)C[C@H](C)N(C)C(=O)NCCc1ccc(F)cc1F | -9 | 1.07 |
| N#Cc1ccc(S(=O)(=O)NCC2(C3CC3)CCC2)s1 | 0 | -0.01 |
| C[C@@H](C(=O)NS(=O)(=O)c1ccsc1)c1ccccc1 | 1 | -0.08 |
| CC(C)N1CC(=O)N(Cc2ccc(N(C)C)nc2)C1=O | 2 | -0.34 |
| CCCc1nc(C(=O)N(C)C[C@H]2CCN(c3ccccc3)C2)cs1 | 14 | -1.87 |
| NS(=O)(=O)[C@H]1CCCN(C(=O)c2cc(-c3ccccc3)ns2)C1 | -9 | 1.42 |
| CC(=O)N[C@H]1C[C@H](c2nnc(CN(C)Cc3csc(C(C)C)n3)n2C)C1 | -6 | 1.06 |
| CC1CCN(C[C@]2(O)CCCN(Cc3ccc(F)c(F)c3)C2=O)CC1 | -8 | 1.6 |
| CN(C)CCN1C(=O)c2cc3occc3n2C[C@@]1(C)C(=O)NC1CCCCC1 | -1 | 0.19 |
| Cc1c(F)cccc1NCc1ncccn1 | -11 | 1.1 |
| CCc1[nH]nc(-c2ccc3c(c2)OCO3)c1NC(=O)Nc1ccc(Cl)cc1 | -13 | 1.63 |
| O=C(Nc1cc(-c2nc[nH]n2)ccc1F)[C@H]1CCS(=O)(=O)C1 | -6 | 0.99 |
| CCOc1ccccc1[C@H](CC)NC(=O)N1CCCCO1 | -10 | 0.93 |
| CCc1ccsc1C(=O)N1CCCC1C1CCCN1C (stereo not drawn) | -2 | 0.29 |
| CC1=C[C@@H](CNCCN2CCOCC2)[C@H](C(C)C)C[C@H]1Cc1nnc(C(C)(C)C)o1 | -11 | 1.68 |
